According to the supplement of paper PMC4967469:

Experiments:
Experiment in all cases: Viability of human cancer cell lines after 72 h of drug (GDSC screen)
TPCA-1 = compound: NC(=O)Nc1sc(-c2ccc(F)cc2)cc1C(N)=O [TPCA-1]; conditions: top dose 20 µM
Experimental: (§1)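 Human cancer cell lines in 384-well plates, medium with 10% serum, drug for 72 h over a 256-fold dose range (nine 2-fold or five 4-fold steps up to the top dose). Adherent lines were fixed and stained with the nucleic acid dye Syto60, suspension lines read with resazurin; signal relative to control wells, capped at 0 and 100%. One two-parameter sigmoid per drug and line, fitted in a mixed model over all curves with the slope shared within a line.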

PLX4720 = compound: CCCS(=O)(=O)Nc1ccc(F)c(C(=O)c2c[nH]c3ncc(Cl)cc23)c1F [PLX4720]; conditions: top dose 10 µM
Experimental: as §1

Y-39983 = compound: C[C@@H](N)c1ccc(C(=O)Nc2ccnc3[nH]ccc23)cc1 [Y-39983]; conditions: top dose 20 µM; top dose inferred
Experimental: as §1

PHA-793887 = compound: CC(C)CC(=O)Nc1n[nH]c2c1CN(C(=O)C1CCN(C)CC1)C2(C)C [PHA-793887]; conditions: top dose 10.24 µM
Experimental: as §1

Epothilone B = compound: C/C(=C\c1csc(C)n1)[C@@H]1C[C@@H]2O[C@]2(C)CCC[C@H](C)[C@H](O)[C@@H](C)C(=O)C(C)(C)[C@@H](O)CC(=O)O1 [Epothilone B]; conditions: top dose 0.032 µM; top dose inferred
Experimental: as §1

[1] = screen: GDSC drug entry 1371, top dose inferred

Row | Cell Line | AUC (TPCA-1) | IC50 (TPCA-1) [µM] | AUC (PLX4720; [1]) | IC50 (PLX4720; [1]) [µM] | AUC (Y-39983) | IC50 (Y-39983) [µM] | AUC (PHA-793887) | IC50 (PHA-793887) [µM] | AUC (Epothilone B) | IC50 (Epothilone B) [µM] | AUC (PLX4720; screen: GDSC drug entry 1036) | IC50 (PLX4720; screen: GDSC drug entry 1036) [µM]
1 | COLO-792 (melanoma, adherent) | 0.979 | > 20 | 0.985 | > 10 | 0.956 | > 20 | 0.904 | > 10.2 | 0.963 | > 0.032 |  | 
2 | COR-L23 (large cell lung carcinoma, adherent) | 0.831 | 12.2 | 0.966 | > 10 | 0.915 | > 20 | 0.542 | 0.83 | 0.42 | 0.00121 | 0.936 | > 10
3 | COR-L105 (lung adenocarcinoma, adherent) | 0.559 | 1.88 | 0.969 | > 10 | 0.822 | 15.3 | 0.817 | 7.42 | 0.693 | 0.00795 |  | 
4 | CP50-MEL-B (melanoma, adherent) | 0.764 | 7.19 | 0.606 | 1.21 | 0.986 | > 20 | 0.988 | > 10.2 | 0.804 | 0.0158 | 0.393 | 0.318
5 | CS1 (bone, adherent) | 0.859 | 19.9 | 0.982 | > 10 | 0.86 | > 20 | 0.761 | 4.05 | 0.655 | 0.00568 | 0.984 | > 10
6 | Ca9-22 (head and neck, adherent) | 0.836 | 11.9 | 0.987 | > 10 | 0.979 | > 20 | 0.902 | > 10.2 | 0.409 | 0.00115 | 0.986 | > 10
7 | Ca-Ski (cervix, adherent) | 0.642 | 3.25 | 0.956 | > 10 | 0.862 | > 20 | 0.512 | 0.694 | 0.569 | 0.00316 | 0.969 | > 10
8 | CaR-1 (large intestine, adherent) | 0.908 | > 20 |  |  | 0.978 | > 20 | 0.912 | > 10.2 | 0.797 | 0.025 | 0.975 | > 10
9 | Calu-3 (lung adenocarcinoma, adherent) | 0.982 | > 20 | 0.981 | > 10 | 0.983 | > 20 | 0.983 | > 10.2 | 0.482 | 0.00177 | 0.981 | > 10
10 | Caov-4 (ovary, adherent) | 0.969 | > 20 | 0.977 | > 10 | 0.98 | > 20 | 0.923 | > 10.2 | 0.848 | > 0.032 | 0.98 | > 10
11 | Capan-2 (pancreas, adherent) | 0.887 | > 20 | 0.977 | > 10 | 0.985 | > 20 | 0.938 | > 10.2 | 0.794 | 0.0184 | 0.985 | > 10
12 | ChaGo-K-1 (non-small cell lung carcinoma, adherent) | 0.951 | > 20 | 0.983 | > 10 | 0.954 | > 20 | 0.899 | > 10.2 | 0.697 | 0.00787 | 0.948 | > 10
13 | DAN-G (pancreas, adherent) | 0.926 | > 20 |  |  | 0.984 | > 20 | 0.895 | 9.73 | 0.992 | > 0.032 | 0.94 | > 10
14 | DBTRG-05MG (glioma, adherent) | 0.855 | > 20 | 0.842 | 8.84 | 0.951 | > 20 | 0.897 | > 10.2 | 0.686 | 0.00731 | 0.795 | 5.55
15 | DK-MG (glioma, adherent) | 0.886 | > 20 | 0.968 | > 10 | 0.942 | > 20 | 0.939 | > 10.2 | 0.831 | > 0.032 | 0.97 | > 10
16 | DMS-53 (small cell lung carcinoma, adherent) | 0.926 | > 20 | 0.975 | > 10 | 0.988 | > 20 | 0.988 | > 10.2 | 0.978 | > 0.032 |  | 
17 | DMS-273 (small cell lung carcinoma, adherent) | 0.542 | 1.64 |  |  | 0.932 | > 20 | 0.665 | 1.9 | 0.484 | 0.0018 | 0.972 | > 10
18 | DOK (head and neck, adherent) | 0.963 | > 20 | 0.973 | > 10 | 0.973 | > 20 | 0.911 | > 10.2 | 0.948 | > 0.032 | 0.908 | > 10
19 | DU-145 (prostate, adherent) | 0.899 | > 20 | 0.894 | > 10 | 0.968 | > 20 | 0.974 | > 10.2 | 0.347 | 0.000711 | 0.938 | > 10
20 | Daoy (medulloblastoma, adherent) | 0.927 | > 20 | 0.947 | > 10 | 0.964 | > 20 | 0.869 | 8 | 0.179 | 0.000244 |  | 
21 | Detroit562 (head and neck, adherent) | 0.976 | > 20 | 0.983 | > 10 | 0.975 | > 20 | 0.969 | > 10.2 | 0.484 | 0.00181 | 0.97 | > 10
22 | DoTc2-4510 (cervix, adherent) | 0.944 | > 20 | 0.987 | > 10 | 0.978 | > 20 | 0.95 | > 10.2 | 0.394 | 0.00104 | 0.927 | > 10
23 | EBC-1 (lung squamous cell carcinoma, adherent) | 0.955 | > 20 | 0.803 | 5.73 | 0.972 | > 20 | 0.872 | > 10.2 | 0.543 | 0.00266 | 0.908 | > 10

IC50 is the fitted dose that halves viability relative to control wells, and lower means more sensitive; a limit (>, <) means that the fit lies beyond the doses tested. AUC, from the same fit, is the share of area under the viability curve across the 256-fold dose range; it is 1 without any effect and falls as sensitivity rises. For some of these results: The top dose, if marked as inferred, is not printed in the source and was worked back from the curve model. For some of these results: Drugs with an entry number were screened twice under separate entries, and the two screens often disagree.
